# In PubChem BioAssay AID686978 (National Center for Advancing Translational Sciences (NCATS), 2013):
# Among all 420,000 compounds or so, about 64,000 (15%) were called active. The shares of active, inactive and inconclusive entries below differ from those in the screen. The call rests on the fitted dose curve; in most records, active means well fitted inhibition curve with a large enough effect; inconclusive means small, poorly fitted or top-dose-only effect; inactive means flat fitted curve, though single readings scatter. No potency is given beside an inconclusive call; the fits are too rough.
# Assay: qHTS for Inhibitors of human tyrosyl-DNA phosphodiesterase 1 (TDP1): qHTS in cells in absence of CPT; further: nearly all actives have a fitted effect of over 55% in size
# Conditions: DT40 Tdp1-/- hTDP1 cells, no CPT, ATP luminescence, 48 h; series mostly up to 46.2 µM
# Procedure, shortened: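 Compound effects on proliferation are scored in DT40 Tdp1-/-;hTDP1 cells in the absence of CPT. ATP levels (CellTiter-Glo luminescence) are recorded after a ≥48 hr, 37 °C incubation.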
# Potency means the concentration at half of the fitted maximal effect; tags describe the fitted curve by direction and shape.
row,SMILES,Potency
1,CCOC(=O)C1=C(COC(=O)c2ccc(OC(C)C)cc2)NC(=O)NC1C (stereo not drawn),inactive
2,COc1ccc([C@@H]2Sc3cc(OC)ccc3N(CCN(C(C)C)C(C)C)C(=O)[C@H]2OC(C)=O)cc1,"inconclusive [inhibitor, partial curve]"
3,COc1cc(C(CCN2CCCC2)c2c(OC)cc(OC)c3c(-c4ccccc4)cc(=O)oc23)cc(OC)c1OC (stereo not drawn),active: 20.6 µM
4,Cc1ccc2c(c1)c1ncn(Cc3ccc(F)cc3)c(=O)c1n2C,inactive
5,CC1CC(C)(C)CC2(C1)NC(=O)N(CC(=O)NCCc1c[nH]c3ccccc13)C2=O (stereo not drawn),inactive
6,O=[N+]([O-])c1cccc(C(=Nc2cccc(Cl)c2)NO)c1,"inconclusive [inhibitor, single point]"
7,O=C(CCN1CCN(S(=O)(=O)c2ccc(F)cc2)CC1)Nc1ccccc1F,inactive
8,COc1ccc(-n2nc(C(=O)NCC(=O)NCCCN3CCOCC3)c3ccccc3c2=O)cc1OC,inactive
9,Cc1ccc(-c2nc(NCc3cccnc3)c3ccccc3n2)cc1,inactive
10,c1ccn(-c2ccc(-c3ccn[nH]3)cc2)c1,inactive
11,CCOC(=O)c1sc(NC(=O)Nc2ccccc2F)nc1C,"inconclusive [inhibitor, single point]"
12,COc1ccc(NC(=O)c2cccc(Cn3cc(Br)cn3)c2)cn1,"inconclusive [inhibitor, single point]"
13,COc1cccc(NC(=O)NC(C)C2CC3CCC2C3)c1 (stereo not drawn),inactive
14,CCCc1ccc2oc(C(=O)N3CCCC3)c(C)c2c1,"inconclusive [inhibitor, single point]"
15,Cc1cc(C(O)c2ncc(-c3cccc(F)c3)[nH]2)ccc1F (stereo not drawn),inactive
16,CC(=O)c1cn(CC(=O)Nc2c(C)cccc2C)c2ccccc12,active: 8.2 µM
17,O=C1CNC(=O)/C(=C/c2ccco2)N1,inactive
18,CN(C)S(=O)(=O)c1cccc(NC(=O)C(c2ccccc2)c2ccccc2)c1,"inconclusive [inhibitor, single point]"
19,CCOc1ccccc1C1Nc2ccccc2-c2nnc(SCc3ccccc3)nc2O1 (stereo not drawn),"inconclusive [inhibitor, single point]"
20,Cc1[nH]n(-c2ccc([N+](=O)[O-])cc2)c(=O)c1C=NCCN1CCN(C(=O)c2ccc(Br)cc2)CC1,active: 14.6 µM
21,CN(CC(=O)Nc1cccc(F)c1)C(=O)COc1cccc2c1OC(C)(C)C2,"inconclusive [inhibitor, single point]"
22,O=C(NC1CCCCC1)OC1CC2CC1[C@H]1CCCCN1C2=O (stereo partly drawn),inactive
23,COc1ccc(C(N)c2csc(NC(=O)Nc3cccc(C(F)(F)F)c3)n2)cc1 (stereo not drawn),active: 13 µM
24,O=C(OCc1nnc(-c2ccccc2)o1)C1CC(=O)N(Cc2ccco2)C1 (stereo not drawn),inactive

row,SMILES,Potency
1,COc1cc(NC(=O)CN(c2ccc(C)cc2)S(=O)(=O)c2c(C)noc2C)cc(OC)c1,active: 7.31 µM
2,O=C(Nc1cccc(O)c1)c1cccc(NC(=O)c2cccs2)c1,inactive
3,O=C(c1ccc2c(c1)OCO2)N(Cc1cc2ccc(F)cc2nc1N1CCC(O)CC1)CC1CCCO1 (stereo not drawn),"inconclusive [inhibitor, partial curve]"
4,COc1ccc(OC)c2c1CCC2=O,inactive
5,COc1ccc(CNS(=O)(=O)CCNC(=O)c2ccc3c(c2)OCO3)cc1,inactive
6,Cc1c(Cl)cccc1NC(=O)CCC(=O)c1cccs1,"inconclusive [inhibitor, full curve, poor fit]"
7,Cc1c(C(=O)NCc2ccccc2)oc2c1-c1[nH]ncc1CC2,inactive
8,N=c1oc2cc(O)ccc2cc1C(=O)Nc1ccc(Br)cc1,"inconclusive [inhibitor, single point]"
9,O=C(c1cccc(S(=O)(=O)Nc2ccc(F)cc2)c1)N1CCCC1,inactive
10,CCn1c(CCCNC(=O)c2cccs2)nc2ccccc21,"inconclusive [inhibitor, single point]"
11,CCCN(C(=O)Cn1nc(Cc2ccncc2)c2ccccc2c1=O)c1ccccc1C,"inconclusive [inhibitor, single point]"
12,N#Cc1nc(-c2ccc(F)cc2)oc1NCc1ccco1,"inconclusive [inhibitor, single point]"
13,Cc1cc(NC(=O)CCC(=O)N(CC(=O)NC2CCCC2)Cc2ccc(F)cc2)no1,inactive
14,COc1ccc(-c2cc3ccccc3oc2=O)cc1NC(=O)c1cccnc1,"inconclusive [inhibitor, single point]"
15,COc1ccc(OCC(=O)N2CCN(c3nnc(-c4ccc(C)cc4)c4ccccc34)CC2)cc1,active: 16.4 µM
16,COc1cccc(C(C)NC(=O)Nc2cc(Cl)ccc2OC)c1 (stereo not drawn),"inconclusive [inhibitor, partial curve]"
17,CCOC(=O)C1CCN(C(c2cccnc2)c2c(NC(=O)c3ccco3)sc(C)c2C)CC1 (stereo not drawn),active: 1.84 µM
18,O=C(CSc1nnc(CNc2ccc(F)cc2)n1CC1CCCO1)Nc1ccccc1 (stereo not drawn),"inconclusive [inhibitor, single point]"
19,C=CCC1(CC=C)CCCN1C(=O)CC1C(=O)NCCN1Cc1ccccc1OC (stereo not drawn),"inconclusive [inhibitor, single point]"
20,CC(C)(C)N1C(=O)[C@H]2[C@@H](c3ccc(Br)cc3)N3C(=O)N(c4ccccc4)C(=O)[C@@]3(Cc3ccccc3)[C@H]2C1=O,"inconclusive [inhibitor, single point]"
21,CCc1ccc2c(c1)C1(C(=O)N2)N2CCCC2C(C(=O)c2ccc3ccccc3c2)C12C(=O)Nc1ccccc12 (stereo not drawn),"inconclusive [inhibitor, single point]"
22,COc1ccc(N(C)C(=O)c2cc3c(s2)-c2ccccc2OC3)c(OC)c1,active: 9.2 µM
23,Cc1cc(O)c(CN2CCN(c3ccc(F)cc3)CC2)c2oc(=O)cc(C)c12,"inconclusive [inhibitor, single point]"
24,CN(C(=O)c1cccc(S(=O)(=O)N2CCOCC2)c1)c1c(N)n(Cc2ccccc2)c(=O)[nH]c1=O,inactive
